# Measured values taken from PubChem BioAssay AID686971 (National Center for Advancing Translational Sciences (NCATS), 2013).
# Screen size: about 360,000 compounds; about 7,500 (2.1%) were called active. This list was built around the results that the source calls inconclusive (neither active nor inactive); the mix of calls is not that of the screen. The call rests on the fitted dose curve; in most records, active means well fitted cell-killing curve with a large enough effect; inconclusive means small, poorly fitted or top-dose-only effect, or effect the other way, or another doubt; inactive means no such curve, though single readings can be large or run the other way. Potencies of inconclusive entries are left out as doubtful fits.
# Assay: qHTS for induction of synthetic lethality in tumor cells producing 2HG: qHTS for the HT-1080-IDH1KD cell line;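 on activity, negative = toxicity: 0% = DMSO wells and -100% = cell-free medium wells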
# Conditions: HT-1080 IDH1 knockdown viability, ATP luminescence, 48 h; activity, negative = toxicity: at 46.1 µM (top of the series) unless noted
# Outline: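 Assay cells: HT-1080 with IDH1 knockdown, 750 per well, RPMI/5% FBS. Exposure: 48 h at 37 °C following 2 h pre-incubation. Read: CellTiter-Glo luminescence; fitted concentration-response, curve class assigned.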
# Potency means the concentration at half of the fitted maximal effect; tags describe the fitted curve by direction and shape.
Structure (SMILES),"activity, negative = toxicity",Potency
Cc1ccc(NC(=O)Cn2c(=O)c(C)nc3ccccc32)cc1,inactive: -7.58%,–
COc1ccc(CCCNC(=O)C2Cc3c(-c4ccccc4)ccnc3O2)cc1 (stereo unspecified),–,"inconclusive [cytotoxic, full curve]"
COc1ccc2[nH]c(C(=O)N3CCC(n4nccc4NC(=O)C4CC4)CC3)c(C)c2c1,inactive: 1.31%,–
Fc1cccc(Nc2nc3ccccc3n3nnnc23)c1,inactive: -1.57%,–
CCn1c(Cn2nnc(-c3ccccc3)n2)nnc1SCC(=O)N1CCOCC1,inactive: -2.96%,–
O=C(NCC1CCCO1)C1CCN(C(=O)c2ccc(Br)cc2)CC1 (stereo unspecified),inactive: -4.89%,–
CSc1ccc(Cn2c(C)c(C(=O)NCc3ccc(Cl)c(Cl)c3)sc2=O)cc1,inactive: -14.1%,–
Cc1cccc(Nc2nc(N)c([N+](=O)[O-])c(N3CCC(C)CC3)n2)c1,–,"inconclusive [cytotoxic, single point]"
Cc1cc(/C=N/NC(=O)Cn2c3ccccc3c(=O)c3ccccc32)c(C)n1-c1ccc(Cl)cc1,–,"inconclusive [cytotoxic, partial curve]"
CCOC(=O)c1cc(-c2ccccc2)sc1NC(=O)CSc1nnc(N)s1,inactive: -19.3%,–
Cc1ccc(N(CC(O)COCc2ccco2)S(=O)(=O)c2ccc(C)cc2)cc1 (stereo unspecified),–,"inconclusive [cytotoxic, single point]"
CC1CCCCN1C(=O)c1cccc(NC2=C(Cl)C(=O)N(Cc3ccccc3)C2=O)c1 (stereo unspecified),–,"inconclusive [cytotoxic, single point]"
Nc1ccccc1N=Nc1ccccc1N,inconclusive: -13.8% [cytotoxic],–
COc1ccc2[nH]c3c(NCCCOC(C)C)ncnc3c2c1,–,"inconclusive [cytotoxic, partial curve]"
O=C(CNC(=O)c1ccc(S(=O)(=O)N2CCCC2)cc1)N/N=C/c1c(Cl)cccc1Cl,–,"inconclusive [cytotoxic, partial curve]"
COc1cc(OC)cc(-c2nc(-c3ccccc3OC)no2)c1,inactive: -0.435%,–
c1cncc(Nc2nc(-c3cccnc3)cs2)c1,inactive: -0.0395%,–
COc1ccccc1N1CCN(C(=O)[C@@H]2CCCN2C2=NS(=O)(=O)c3ccccc32)CC1,inactive: 7.5%,–
Oc1ccc(COCc2ccccc2)c2cccnc12,–,"inconclusive [cytotoxic, single point]"
CCn1cc(CNCc2cn(C)nc2-c2ccc(C3CCCCC3)cc2)cn1,–,active: 20.6 µM
COc1ccccc1NC(=O)c1oc2ccccc2c1NC(=O)c1cc(OC)c(OC)c(OC)c1,–,"inconclusive [cytotoxic, partial curve, poor fit]"
COC(=O)c1ccc(/C=N/n2c(C)nc3ccccc3c2=O)cc1,inactive: 7.76%,–
CCn1c(NC(=O)c2cccc(Cn3cc(Cl)cn3)c2)nc2ccccc21,inactive: -17.8%,–
CN1CCN(C(=S)NC(=O)/C=C/c2ccccc2)CC1,–,"inconclusive [cytotoxic, single point]"
Cc1ccc(NC(=O)Nc2ccc3c(c2)OCO3)nc1,inactive: -5.04%,–
CCc1nc2c(OCc3cccc(Cl)c3)cccn2c1N(C)C(=O)CC(C)C,–,"inconclusive [cytotoxic, single point]"

Structure (SMILES),"activity, negative = toxicity",Potency
Cc1nc2c(OCc3ccc(Cl)cc3Cl)cccn2c1N(C)CC1CC1,–,active: 14.6 µM
N#CC1=C(N)Oc2c(ccc3cccnc23)C1c1cccnc1 (stereo unspecified),–,active: 8.2 µM
O=C(c1cccc([N+](=O)[O-])c1)N1CCN(c2cccc(Cl)c2)CC1,–,"inconclusive [cytotoxic, partial curve]"
NC1=NC(=O)/C(=C\c2ccc(-c3ccccc3[N+](=O)[O-])o2)S1,–,"inconclusive [cytotoxic, single point]"
CCOc1ccc(C(=O)CCC(=O)N2CCN(c3ccc(O)cc3)CC2)cc1,–,"inconclusive [cytotoxic, partial curve]"
COc1ccc2nc(NC(=O)CCn3cccc3)sc2c1,–,"inconclusive [cytotoxic, partial curve]"
O=S(=O)(/C(=C\c1ccc(C(F)(F)F)cc1)c1nc2ccccc2[nH]1)c1ccccc1,–,active: 1.46 µM
O=C(NC1CCCc2c1cnn2-c1ccc(F)cc1F)c1csnn1 (stereo unspecified),inactive: 0.981%,–
Cc1ccc(NNC(=O)C(=O)N2CCCCC2)cc1,–,active: 4.11 µM
COc1ccc(C(C(=O)NC2CCCCC2)N(Cc2cccs2)C(=O)Cc2c[nH]c3ccccc23)cc1 (stereo unspecified),–,"inconclusive [cytotoxic, single point]"
Cc1ccc(C2=Nc3ccc(Br)cc3C(c3ccncc3)=NN2)cc1,–,"inconclusive [cytotoxic, single point]"
CC(=O)N(C(C)=O)N1C(=O)/C(=C/c2ccc(Cl)cc2)SC1=S,–,"inconclusive [cytotoxic, single point]"
Cc1cc(C(=O)CN2C(=O)NC(C)(c3cccc(Br)c3)C2=O)c(C)n1Cc1ccco1 (stereo unspecified),–,"inconclusive [cytotoxic, single point]"
Cc1cc(-c2n[nH]c(=S)n2/N=C/C(Br)=C/c2ccccc2)n[nH]1,–,"inconclusive [cytotoxic, single point]"
Cc1c(N=N/C(C(=O)Nc2ccccc2)=C(/O)c2ccccc2)c(=O)n(-c2ccccc2)n1C,inactive: -3.29%,–
O=S(=O)(c1ccc2ccccc2c1)N(CC(O)COCc1ccco1)c1ccccc1 (stereo unspecified),–,"inconclusive [cytotoxic, single point]"
c1ccc2nc(-c3nc4ccccc4[nH]3)ccc2c1,–,active: 13 µM
CN(C)c1ccc(C(C(=O)NC2CCCCC2)N(Cc2ccco2)C(=O)c2snc(C(N)=O)c2N)cc1 (stereo unspecified),inactive: 0.365%,–
O=C(COC(=O)c1cccc(O)c1)c1ccccc1,inactive: 18.6%,–
COc1ccc(/C=C2\CCc3ccccc3C2=O)cc1O,–,active: 4.11 µM
COc1ccc(-c2csc(N(CCCN(C)C)C(=O)c3ccc(Br)cc3)n2)cc1,–,active: 20.6 µM
COc1cc2cc(CN(Cc3nnnn3Cc3ccco3)C3CCCCC3)c(=O)[nH]c2cc1OC,inactive: -15%,–
Cc1c(Cl)cn2c(=O)cc(CN3CCN(c4ccccc4)CC3)nc2c1Cl,–,"inconclusive [rising, single point]"
Cc1cc(Cl)c(S(=O)(=O)NCc2ccncc2)cc1OCC(N)=O,inactive: -0.916%,–
COCCCNC(=S)NNC(=S)Nc1ccc(F)cc1F,–,"inconclusive [cytotoxic, single point]"
CCCCOC(=O)c1ccc(NC(=O)c2cc(Cl)c(Cl)cc2C(=O)O)cc1,–,"inconclusive [cytotoxic, partial curve]"

Structure (SMILES),"activity, negative = toxicity",Potency
CCCCC(=O)NC(c1ccc(OC)c(OC)c1)c1ccc2cccnc2c1O (stereo unspecified),–,active: 2.91 µM
COc1ccccc1Cc1c(-c2ccc(OC)c(OC)c2)nc2c3ccccc3ccn12,–,"inconclusive [cytotoxic, single point]"
Cn1cccc1-c1nc2ccc(NC(=O)c3ccccc3)cc2[nH]1,inactive: 5.37%,–
CCN(CC)C(=O)c1ccc2nc([C@H]3C[C@H](O)[C@@H](CO)O3)[nH]c2c1,inactive: 13.9%,–
Cc1ccsc1C(=O)OCC(=O)c1ccc(OC(F)F)cc1,inactive: -3.79%,–
Cc1cc(C)nc(N2CCCC(C(=O)Nc3cc(F)ccc3C)C2)n1 (stereo unspecified),inactive: -1.71%,–
CCOC(=O)c1ccc(NC(=O)c2cccc(S(=O)(=O)N3c4ccccc4CC3C)c2)s1 (stereo unspecified),–,"inconclusive [cytotoxic, partial curve]"
Cc1cc2c3c(c1)C(C)CC(C)(C)N3C(=O)C2=O (stereo unspecified),inactive: -11%,–
Cc1ccc(C)c(OCC(=O)Nc2ccncc2)c1,–,"inconclusive [cytotoxic, single point]"
O=C1c2ccccc2C(=O)C12OC2c1ccc(Cl)cc1Cl (stereo unspecified),–,"inconclusive [cytotoxic, single point]"
O=C(Nc1ccc(Cl)cn1)c1cccc(OCc2ccccc2)c1,–,"inconclusive [cytotoxic, single point]"
COc1ccc(CN(C)C(=O)c2sccc2-c2ccccc2)c(OC)c1,inactive: -18.1%,–
O=C(CNS(=O)(=O)c1ccc(Br)s1)NCC1COc2ccccc2O1 (stereo unspecified),–,"inconclusive [cytotoxic, single point]"
CC1CCCCN1C(=O)CSc1nnc(CSc2ncccn2)n1C (stereo unspecified),inactive: 10.7%,–
C/C(NC(=O)c1ccccc1)=C1/C(=O)CC2C1C2(C)C (stereo unspecified),–,"inconclusive [cytotoxic, single point]"
COc1cc(NC(=O)c2ccc(S(=O)(=O)N(C)c3ccccc3OC)cc2)cc(OC)c1,inactive: -1.35%,–
COc1ccc(-c2csc(NC(C)c3nc4cc(C(F)(F)F)ccc4n3CCOCCO)n2)cc1 (stereo unspecified),–,"inconclusive [cytotoxic, single point]"
COc1ccc(CCn2c(C)cc(C(=O)CN3C(=O)C(=O)N(Cc4ccco4)C3=O)c2C)cc1,–,"inconclusive [cytotoxic, single point]"
O=c1c2cnn(-c3ccc(F)cc3)c2ncn1Cc1ccccc1,inactive: 6.75%,–
O=C(NNC(=S)NC(=O)c1cn(-c2ccccc2)nc1-c1ccccc1)c1ccncc1,–,"inconclusive [cytotoxic, partial curve]"
CCCN(C(=O)CCl)C1=CCCCC1,–,"inconclusive [cytotoxic, partial curve]"
Cc1cc(C(=O)CSc2nc(N)cc(N)n2)c(C)n1CCc1ccc(F)cc1,–,"inconclusive [cytotoxic, partial curve]"
CCN(CC)CCCC(C)n1c2nc(=O)[nH]c(=O)c-2nc2cc(Cl)ccc21 (stereo unspecified),–,active: 16.4 µM
OC(CNCCc1ccc(C(F)(F)F)cc1)COC(c1ccccc1)c1ccccc1 (stereo unspecified),–,"inconclusive [cytotoxic, single point]"
